# Test results: the supplement of paper PMC8728848
# The list shows a part of the results.
# How the values were obtained:
# Experiment in all cases: glycan array binding signal (z-score within array); higher = stronger binding
# Settings in all cases: glycan notation: IUPAC condensed, linker removed
# [1] = molecular target: Gal(b1-3)[Fuc(a1-4)]GlcNAc(b1-6)GalNAc
# In short: (§1)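 Glycan array binding is given as a within-array Z-score, which can be read as non-binding when negative. The arrays, 3228 of them, came from the Consortium for Functional Glycomics database and were retained only where the protein sequence was available. Z-scores were averaged across arrays of the same protein sequence at different concentrations or buffers and across linkers.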
# [2] = molecular target: Gal(b1-3)[GlcNAc(b1-6)]GalNAc
# In short: as §1
# [3] = molecular target: Gal(b1-3)[Neu5Ac(a2-6)]GalNAc
# In short: as §1
# [4] = molecular target: Gal(b1-3)[Neu5Ac(a2-6)]GlcNAc(b1-4)Gal(b1-4)Glc
# In short: as §1
# [5] = molecular target: Gal(b1-3)[Neu5Ac(b2-6)]GalNAc
# In short: as §1
# Gal(b1-4)Gal = molecular target: Gal(b1-4)Gal
# In short: as §1
# [6] = molecular target: Gal(b1-4)GalNAc(a1-3)[Fuc(a1-2)]Gal(b1-4)GlcNAc
# In short: as §1
# [7] = molecular target: Gal(b1-4)GalNAc(b1-3)[Fuc(a1-2)]Gal(b1-4)GlcNAc
# In short: as §1
# Gal(b1-4)Glc = molecular target: Gal(b1-4)Glc
# In short: as §1
# Gal(b1-4)Glc6S = molecular target: Gal(b1-4)Glc6S
# In short: as §1
# Gal(b1-4)GlcNAc = molecular target: Gal(b1-4)GlcNAc
# In short: as §1
# [8] = molecular target: Gal(b1-4)GlcNAc(a1-6)Gal(b1-4)GlcNAc
# In short: as §1
# Gal(b1-4)GlcNAc(b1-2)Man = molecular target: Gal(b1-4)GlcNAc(b1-2)Man
# In short: as §1
# [9] = molecular target: Gal(b1-4)GlcNAc(b1-2)Man(a1-3)Man(b1-4)GlcNAc(b1-4)GlcNAc
# In short: as §1
# [10] = molecular target: Gal(b1-4)GlcNAc(b1-2)Man(a1-3)[Gal(b1-4)GlcNAc(b1-2)Man(a1-6)]Man(b1-4)GlcNAc(b1-4)GlcNAc
# In short: as §1
# [11] = molecular target: Gal(b1-4)GlcNAc(b1-2)Man(a1-3)[Gal(b1-4)GlcNAc(b1-2)Man(a1-6)]Man(b1-4)GlcNAc(b1-4)[Fuc(a1-6)]GlcNAc
# In short: as §1
# [12] = molecular target: Gal(b1-4)GlcNAc(b1-2)Man(a1-3)[Gal(b1-4)GlcNAc(b1-2)Man(a1-6)][Gal(b1-4)GlcNAc(b1-4)]Man(b1-4)GlcNAc(b1-4)[Fuc(a1-6)]GlcNAc
# In short: as §1
# [13] = molecular target: Gal(b1-4)GlcNAc(b1-2)Man(a1-3)[Gal(b1-4)GlcNAc(b1-2)Man(a1-6)][GlcNAc(b1-4)]Man(b1-4)GlcNAc(b1-4)[Fuc(a1-6)]GlcNAc
# In short: as §1
# [14] = molecular target: Gal(b1-4)GlcNAc(b1-2)Man(a1-3)[GlcNAc(b1-2)Man(a1-6)]Man(b1-4)GlcNAc(b1-4)GlcNAc
# In short: as §1
# [15] = molecular target: Gal(b1-4)GlcNAc(b1-2)Man(a1-3)[GlcNAc(b1-4)][Gal(b1-4)GlcNAc(b1-2)Man(a1-6)]Man(b1-4)GlcNAc(b1-4)GlcNAc
# In short: as §1
# [16] = molecular target: Gal(b1-4)GlcNAc(b1-2)Man(a1-3)[Man(a1-6)]Man(b1-4)GlcNAc(b1-4)GlcNAc
# In short: as §1
# [17] = molecular target: Gal(b1-4)GlcNAc(b1-2)Man(a1-6)Man(b1-4)GlcNAc(b1-4)GlcNAc
# In short: as §1
# [18] = molecular target: Gal(b1-4)GlcNAc(b1-2)Man(a1-6)[GlcNAc(b1-2)Man(a1-3)]Man(b1-4)GlcNAc(b1-4)GlcNAc
# In short: as §1
# [19] = molecular target: Gal(b1-4)GlcNAc(b1-2)Man(a1-6)[Man(a1-3)]Man(b1-4)GlcNAc(b1-4)GlcNAc
# In short: as §1
# [20] = molecular target: Gal(b1-4)GlcNAc(b1-2)[Gal(b1-4)GlcNAc(b1-4)]Man(a1-3)[Gal(b1-4)GlcNAc(b1-2)Man(a1-6)]Man(b1-4)GlcNAc(b1-4)GlcNAc
# In short: as §1
# [21] = molecular target: Gal(b1-4)GlcNAc(b1-2)[Gal(b1-4)GlcNAc(b1-4)]Man(a1-3)[Gal(b1-4)GlcNAc(b1-2)[Gal(b1-4)GlcNAc(b1-6)]Man(a1-6)]Man(b1-4)GlcNAc(b1-4)GlcNAc
# In short: as §1
# [22] = molecular target: Gal(b1-4)GlcNAc(b1-2)[Gal(b1-4)GlcNAc(b1-4)]Man(a1-3)[GlcNAc(b1-4)][Gal(b1-4)GlcNAc(b1-2)Man(a1-6)]Man(b1-4)GlcNAc(b1-4)GlcNAc
# In short: as §1
# [23] = molecular target: Gal(b1-4)GlcNAc(b1-2)[Gal(b1-4)GlcNAc(b1-4)]Man(a1-3)[GlcNAc(b1-4)][Gal(b1-4)GlcNAc(b1-2)[Gal(b1-4)GlcNAc(b1-6)]Man(a1-6)]Man(b1-4)GlcNAc(b1-4)GlcNAc
# In short: as §1
# [24] = molecular target: Gal(b1-4)GlcNAc(b1-2)[Gal(b1-4)GlcNAc(b1-6)]Man(a1-6)[Gal(b1-4)GlcNAc(b1-2)Man(a1-3)]Man(b1-4)GlcNAc(b1-4)GlcNAc
# In short: as §1
# [25] = molecular target: Gal(b1-4)GlcNAc(b1-2)[Gal(b1-4)GlcNAc(b1-6)]Man(a1-6)[Gal(b1-4)GlcNAc(b1-2)Man(a1-3)]Man(b1-4)GlcNAc(b1-4)[Fuc(a1-6)]GlcNAc
# In short: as §1
# [26] = molecular target: Gal(b1-4)GlcNAc(b1-2)[Gal(b1-4)GlcNAc(b1-6)]Man(a1-6)[GlcNAc(b1-4)][Gal(b1-4)GlcNAc(b1-2)Man(a1-3)]Man(b1-4)GlcNAc(b1-4)GlcNAc
# In short: as §1
# [27] = molecular target: Gal(b1-4)GlcNAc(b1-2)[Gal(b1-4)GlcNAc(b1-6)]Man(a1-6)[GlcNAc(b1-4)][Gal(b1-4)GlcNAc(b1-2)[Gal(b1-4)GlcNAc(b1-4)]Man(a1-3)]Man(b1-4)GlcNAc(b1-4)[Fuc(a1-6)]GlcNAc
# In short: as §1
# [28] = molecular target: Gal(b1-4)GlcNAc(b1-3)Gal(b1-3)GalNAc
# In short: as §1
# [29] = molecular target: Gal(b1-4)GlcNAc(b1-3)Gal(b1-3)GlcNAc
# In short: as §1
# [30] = molecular target: Gal(b1-4)GlcNAc(b1-3)Gal(b1-4)Glc
# In short: as §1
# [31] = molecular target: Gal(b1-4)GlcNAc(b1-3)Gal(b1-4)GlcNAc
# In short: as §1
# [32] = molecular target: Gal(b1-4)GlcNAc(b1-3)Gal(b1-4)GlcNAc(b1-2)Man(a1-3)[Gal(b1-4)GlcNAc(b1-3)Gal(b1-4)GlcNAc(b1-2)Man(a1-6)]Man(b1-4)GlcNAc(b1-4)GlcNAc
# In short: as §1
# [33] = molecular target: Gal(b1-4)GlcNAc(b1-3)Gal(b1-4)GlcNAc(b1-2)Man(a1-3)[Gal(b1-4)GlcNAc(b1-3)Gal(b1-4)GlcNAc(b1-2)Man(a1-6)]Man(b1-4)GlcNAc(b1-4)[Fuc(a1-6)]GlcNAc
# In short: as §1
binder,measurement,setting,value
PNGase F (Flavobacterium meningosepticum) (protein) GIPAPADNTVNIKTFDKVKNAFGDGLSQSAEGTFTFPADVTAVKTIKMFIKNECPNKTCDEWDRYANVYVKNKTTGEWYEIGRFITPYWVGTEKLPRGLEIDVTDFKSLLSGNTELKIYTETWLAKGREYSVDFDIVYGTPDYKYSAVVPVVQYNKSSIDGVPYGKAHTLALKKNIQLPTNTEKAYLRTTISGWGHAKPYDAGSRGCAEWCFRTHTIAINNSNTFQHQLGALGCSANPINNQSPGNWTPDRAGWCPGMAVPTRIDVLNNSLIGSTFSYEYKFQNWTNNGTNGDAFYAISSFVIAKSNTPISAPVVTNLDPHHHHHH,glycan array binding signal (z-score),[1],-0.207
same,glycan array binding signal (z-score),[2],-0.166
same,glycan array binding signal (z-score),[3],-0.245
same,glycan array binding signal (z-score),[4],-0.309
same,glycan array binding signal (z-score),[5],-0.337
same,glycan array binding signal (z-score),Gal(b1-4)Gal,0.114
same,glycan array binding signal (z-score),[6],-0.371
same,glycan array binding signal (z-score),[7],-0.37
same,glycan array binding signal (z-score),Gal(b1-4)Glc,0.897
same,glycan array binding signal (z-score),Gal(b1-4)Glc6S,0.105
same,glycan array binding signal (z-score),Gal(b1-4)GlcNAc,-0.008
same,glycan array binding signal (z-score),[8],-0.18
same,glycan array binding signal (z-score),Gal(b1-4)GlcNAc(b1-2)Man,0.088
same,glycan array binding signal (z-score),[9],-0.136
same,glycan array binding signal (z-score),[10],-0.323
same,glycan array binding signal (z-score),[11],-0.194
same,glycan array binding signal (z-score),[12],-0.348
same,glycan array binding signal (z-score),[13],-0.326
same,glycan array binding signal (z-score),[14],-0.321
same,glycan array binding signal (z-score),[15],-0.247
same,glycan array binding signal (z-score),[16],1.11
same,glycan array binding signal (z-score),[17],-0.202
same,glycan array binding signal (z-score),[18],-0.208
same,glycan array binding signal (z-score),[19],-0.294
same,glycan array binding signal (z-score),[20],-0.043
same,glycan array binding signal (z-score),[21],-0.349
same,glycan array binding signal (z-score),[22],-0.271
same,glycan array binding signal (z-score),[23],-0.285
same,glycan array binding signal (z-score),[24],-0.257
same,glycan array binding signal (z-score),[25],-0.471
same,glycan array binding signal (z-score),[26],-0.459
same,glycan array binding signal (z-score),[27],-0.54
same,glycan array binding signal (z-score),[28],-0.329
same,glycan array binding signal (z-score),[29],0.045
same,glycan array binding signal (z-score),[30],0.271
same,glycan array binding signal (z-score),[31],-0.411
same,glycan array binding signal (z-score),[32],0.135
same,glycan array binding signal (z-score),[33],-0.253
